From the supplement of paper PMC8728848
This is one part of the list.

Assays:
Assay in all cases: glycan array binding signal (z-score within array); higher = stronger binding
Conditions in all cases: glycan notation: IUPAC condensed, linker removed; mutation: R74S
[1] = target: Neu5Ac(a2-6)Gal(b1-4)GlcNAc(b1-2)Man(a1-3)[Neu5Ac(a2-3)Gal(b1-4)GlcNAc(b1-2)Man(a1-6)]Man(b1-4)GlcNAc(b1-4)GlcNAc
Method in brief: (§1)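 Negative Z-scores can be read as non-binding. The Z-score is calculated within each array and then averaged across arrays of one protein sequence at different concentrations or buffers and across linkers. Arrays, 3228 in all, were curated from the Consortium for Functional Glycomics database and kept only where the protein sequence was available.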

[2] = target: Neu5Ac(a2-6)Gal(b1-4)GlcNAc(b1-2)Man(a1-3)[Neu5Ac(a2-6)Gal(b1-4)GlcNAc(b1-2)Man(a1-6)]Man(b1-4)GlcNAc(b1-4)GlcNAc
Method in brief: as §1

[3] = target: Neu5Ac(a2-6)Gal(b1-4)GlcNAc(b1-2)Man(a1-3)[Neu5Ac(a2-6)Gal(b1-4)GlcNAc(b1-2)Man(a1-6)]Man(b1-4)GlcNAc(b1-4)[Fuc(a1-6)]GlcNAc
Method in brief: as §1

[4] = target: Neu5Ac(a2-6)Gal(b1-4)GlcNAc(b1-2)Man(a1-6)Man(b1-4)GlcNAc(b1-4)GlcNAc
Method in brief: as §1

[5] = target: Neu5Ac(a2-6)Gal(b1-4)GlcNAc(b1-2)Man(a1-6)[Gal(b1-4)GlcNAc(b1-2)Man(a1-3)]Man(b1-4)GlcNAc(b1-4)GlcNAc
Method in brief: as §1

[6] = target: Neu5Ac(a2-6)Gal(b1-4)GlcNAc(b1-2)Man(a1-6)[GlcNAc(b1-2)Man(a1-3)]Man(b1-4)GlcNAc(b1-4)GlcNAc
Method in brief: as §1

[7] = target: Neu5Ac(a2-6)Gal(b1-4)GlcNAc(b1-2)Man(a1-6)[Man(a1-3)]Man(b1-4)GlcNAc(b1-4)GlcNAc
Method in brief: as §1

[8] = target: Neu5Ac(a2-6)Gal(b1-4)GlcNAc(b1-2)[Neu5Ac(a2-6)Gal(b1-4)GlcNAc(b1-4)]Man(a1-3)[GlcNAc(b1-4)][Neu5Ac(a2-6)Gal(b1-4)GlcNAc(b1-2)[Neu5Ac(a2-6)Gal(b1-4)GlcNAc(b1-6)]Man(a1-6)]Man(b1-4)GlcNAc(b1-4)GlcNAc
Method in brief: as §1

[9] = target: Neu5Ac(a2-6)Gal(b1-4)GlcNAc(b1-2)[Neu5Ac(a2-6)Gal(b1-4)GlcNAc(b1-4)]Man(a1-3)[GlcNAc(b1-4)][Neu5Ac(a2-6)Gal(b1-4)GlcNAc(b1-4)Man(a1-6)]Man(b1-4)GlcNAc(b1-4)GlcNAc
Method in brief: as §1

[10] = target: Neu5Ac(a2-6)Gal(b1-4)GlcNAc(b1-2)[Neu5Ac(a2-6)Gal(b1-4)GlcNAc(b1-6)]Man(a1-6)[Neu5Ac(a2-6)Gal(b1-4)GlcNAc(b1-2)Man(a1-3)][GlcNAc(b1-4)]Man(b1-4)GlcNAc(b1-4)GlcNAc
Method in brief: as §1

[11] = target: Neu5Ac(a2-6)Gal(b1-4)GlcNAc(b1-3)Gal(b1-3)GlcNAc
Method in brief: as §1

[12] = target: Neu5Ac(a2-6)Gal(b1-4)GlcNAc(b1-3)Gal(b1-4)GlcNAc
Method in brief: as §1

[13] = target: Neu5Ac(a2-6)Gal(b1-4)GlcNAc(b1-3)Gal(b1-4)GlcNAc(b1-2)Man(a1-3)[Neu5Ac(a2-6)Gal(b1-4)GlcNAc(b1-3)Gal(b1-4)GlcNAc(b1-2)Man(a1-6)]GalNAc
Method in brief: as §1

[14] = target: Neu5Ac(a2-6)Gal(b1-4)GlcNAc(b1-3)Gal(b1-4)GlcNAc(b1-3)Gal(b1-4)GlcNAc
Method in brief: as §1

[15] = target: Neu5Ac(a2-6)Gal(b1-4)GlcNAc(b1-3)Gal(b1-4)GlcNAc(b1-3)Gal(b1-4)GlcNAc(b1-2)Man(a1-3)[Neu5Ac(a2-6)Gal(b1-4)GlcNAc(b1-3)Gal(b1-4)GlcNAc(b1-3)Gal(b1-4)GlcNAc(b1-2)Man(a1-6)]GalNAc
Method in brief: as §1

[16] = target: Neu5Ac(a2-6)Gal(b1-4)GlcNAc(b1-3)Gal(b1-4)GlcNAc(b1-3)GalNAc
Method in brief: as §1

[17] = target: Neu5Ac(a2-6)Gal(b1-4)GlcNAc(b1-3)Gal(b1-4)GlcNAc(b1-3)[Neu5Ac(a2-6)Gal(b1-4)GlcNAc(b1-3)Gal(b1-4)GlcNAc(b1-6)]GalNAc
Method in brief: as §1

[18] = target: Neu5Ac(a2-6)Gal(b1-4)GlcNAc(b1-3)Gal(b1-4)GlcNAc(b1-6)[Gal(b1-3)]GalNAc
Method in brief: as §1

[19] = target: Neu5Ac(a2-6)Gal(b1-4)GlcNAc(b1-3)Gal(b1-4)[Fuc(a1-3)]GlcNAc(b1-3)Gal(b1-4)[Fuc(a1-3)]GlcNAc
Method in brief: as §1

[20] = target: Neu5Ac(a2-6)Gal(b1-4)GlcNAc(b1-3)GalNAc
Method in brief: as §1

[21] = target: Neu5Ac(a2-6)Gal(b1-4)GlcNAc(b1-3)[Neu5Ac(a2-6)Gal(b1-4)GlcNAc(b1-6)]GalNAc
Method in brief: as §1

[22] = target: Neu5Ac(a2-6)Gal(b1-4)GlcNAc(b1-6)GalNAc
Method in brief: as §1

[23] = target: Neu5Ac(a2-6)Gal(b1-4)GlcNAc(b1-6)[Gal(b1-3)GlcNAc(b1-3)]Gal(b1-4)Glc
Method in brief: as §1

[24] = target: Neu5Ac(a2-6)Gal(b1-4)GlcNAc(b1-6)[Gal(b1-3)]GalNAc
Method in brief: as §1

[25] = target: Neu5Ac(a2-6)Gal(b1-4)GlcNAc6S
Method in brief: as §1

[26] = target: Neu5Ac(a2-6)GalNAc
Method in brief: as §1

[27] = target: Neu5Ac(a2-6)GalNAc(b1-4)GlcNAc
Method in brief: as §1

[28] = target: Neu5Ac(a2-6)GalNAc(b1-4)GlcNAc6S
Method in brief: as §1

[29] = target: Neu5Ac(a2-6)GlcNAc(b1-4)GlcNAc
Method in brief: as §1

[30] = target: Neu5Ac(a2-6)GlcNAc(b1-4)GlcNAc(b1-4)GlcNAc
Method in brief: as §1

B1: Gal 7 (Homo sapiens) (protein)
chain: MSNVPHKSSLPEGIRPGTVLRIRGLVPPNASRFHVNLLCGEEGGSDAALHFNPRLDTSEVVFNSKEGGSWGREESGPGVPFGRGQPFEVLIIASDDGFKAVVGDAQYHHFRHRLPLARVRLVEVGGDVQLDSVRIF
[1]
  glycan array binding signal (z-score): -0.375
[2]
  glycan array binding signal (z-score): 0.15
[3]
  glycan array binding signal (z-score): 0.696
[4]
  glycan array binding signal (z-score): -0.68
[5]
  glycan array binding signal (z-score): -0.648
[6]
  glycan array binding signal (z-score): -0.416
[7]
  glycan array binding signal (z-score): -0.401
[8]
  glycan array binding signal (z-score): -0.265
[9]
  glycan array binding signal (z-score): -0.269
[10]
  glycan array binding signal (z-score): -0.386
[11]
  glycan array binding signal (z-score): -0.117
[12]
  glycan array binding signal (z-score): -0.592
[13]
  glycan array binding signal (z-score): -0.261
[14]
  glycan array binding signal (z-score): -0.504
[15]
  glycan array binding signal (z-score): 0.962
[16]
  glycan array binding signal (z-score): -0.31
[17]
  glycan array binding signal (z-score): -0.005
[18]
  glycan array binding signal (z-score): -0.481
[19]
  glycan array binding signal (z-score): -0.111
[20]
  glycan array binding signal (z-score): -0.378
[21]
  glycan array binding signal (z-score): -0.368
[22]
  glycan array binding signal (z-score): -0.213
[23]
  glycan array binding signal (z-score): -0.239
[24]
  glycan array binding signal (z-score): -0.433
[25]
  glycan array binding signal (z-score): -0.194
[26]
  glycan array binding signal (z-score): -0.343
[27]
  glycan array binding signal (z-score): -0.703
[28]
  glycan array binding signal (z-score): -0.203
[29]
  glycan array binding signal (z-score): -0.42
[30]
  glycan array binding signal (z-score): -0.32
